This note sets out measurements from PubChem BioAssay AID463173 (ICCB-Longwood Screening Facility, Harvard Medical School, 2010).

About 1,700 (3.3%) of roughly 52,000 compounds were called active. Cut-off read from the data, not from the text of the source: active = survival mostly below about 52% (no sharp cut-off); inactive = mostly above about 56%. The list shows a part of the results.

In the assay the test system is Wild type. As to the kind of experiment: growth inhibition of S. aureus wild type versus tarO mutant, primary screen, teichoic acid synthesis inhibitors, RN4220, OD600 (AID 463173). Particulars: S. aureus RN4220 wild type/DeltatarO growth, OD600, 18 h, stronger effect = lower value, screened at 18.75 µg/mL (by protocol).
On to `COc1ccccc1N1CCN(c2nc(-c3ccc(C)cc3)nc3ccccc23)CC1`, for which the survival is inactive: 72%.
Then `CCOc1ccc(OCC)c(NS(=O)(=O)c2c(C(=O)N3CCC(C)CC3)c(C)n(C)c2C)c1`, with active: 0%.
As for `COc1ccc(N2CC(NC(=O)c3ccc4c(c3)OCO4)CC2=O)cc1` (stereo unspecified), the survival is inactive: 129%.
As for `CCOc1ccc(NC(=O)CN(c2ccc(Cl)cc2C)S(=O)(=O)c2ccccc2)cc1`, the survival is inactive: 77%.
Then `COc1ccc(NC(=O)CN(c2ccc(C)cc2)S(=O)(=O)c2cccc3nonc23)cc1OC`, with inactive: 80%; and `O=C(Nc1ccc(OCc2cc(=O)n3c4c(sc3n2)CCCC4)cc1)c1ccccc1`, with inactive: 78%; and `CC1CCc2nc3ncn(Cc4ccccc4F)c(=O)c3cc2C1` (stereo unspecified), with inactive: 53%.
In the case of `Cc1ccc(-n2c(SCC(=O)O)nc3sc4c(c3c2=O)CCCC4)cc1`, the survival is inactive: 73%.
The result for `CCOc1ccc(NC(=O)c2cnc(N3CCCCC3)c3ccccc23)cc1` reads inactive: 70%; that for `Cc1cccc(C(=O)Nc2ccccc2C#N)c1`, inactive: 102%; that for `COc1ccc(NC(=O)Cn2cnc3c(oc4ccccc43)c2=O)cc1OC`, inactive: 83%.
Then `CC(C)NC(=O)C1CCC(Cn2c(=O)c3sccc3n(CC(=O)NCc3ccccc3)c2=O)CC1` (stereo unspecified), with inactive: 77%; and `CCCOc1c(Cl)cc(C(=O)N(Cc2cccc(OC)c2)C2CCS(=O)(=O)C2)cc1Cl` (stereo unspecified), with inactive: 96%; and `O=C(NCc1ccc2c(c1)OCO2)c1ccc2c(c1)N(Cc1ccccc1)C(=O)c1ccccc1S2=O` (stereo unspecified), with inactive: 96%.
On to `CCOC(=O)c1c(-c2ccccc2)csc1NC(=O)c1cc(-c2ccc(F)cc2)on1`, for which the survival was inactive: 90%.
For `N#Cc1cc2sc3nc4ccccc4n3c2cc1C#N`, the survival is inactive: 101%.
The result for `CC(C)n1cnc(S(=O)(=O)N2CCCC(C(=O)NCc3ccccc3Cl)C2)c1` (stereo unspecified) reads inactive: 101%; that for `CN(c1ccccc1)S(=O)(=O)c1nnc(NC(=O)c2ccccc2)s1`, inactive: 42%.
The result for `CCOc1ccc(C(=O)c2c(N)c(-c3nc(-c4ccc5c(c4)OCO5)cs3)c3ccccn23)cc1` reads inactive: 110%; that for `COC(=O)Cn1c(=O)c2cccn2c2cccnc21`, inactive: 122%; that for `Cc1cc(C(=O)Nc2ccc(C(C)C)cc2)c2c(C)nn(-c3ccccc3)c2n1`, inactive: 80%.
The result for `Cc1ccsc1CN(C(=O)c1oc2cc(Br)ccc2c1C)C1CCS(=O)(=O)C1` (stereo unspecified) reads inactive: 68%.
`O=C(CS(=O)CC(=O)Nc1cccc2c1CCCC2)Nc1ccc(F)cc1` (stereo unspecified): the survival is inactive: 105%.
Then `COc1cccc(CNC(=O)CSc2c3c(nc4cc(Cl)ccc24)CCCC3)c1`, with inactive: 78%; and `CN(C)CCCN(C(=O)c1ccc2c(c1)OCCO2)c1nc2ccccc2s1`, with inactive: 87%; and `Cc1cccc2c(=O)cc(CSc3ccccc3NC(=O)c3cccc(F)c3)[nH]c12`, with inactive: 73%.
Then `COc1ccccc1CNc1ccc(-c2nc(-c3ccco3)no2)cc1[N+](=O)[O-]`, with inactive: 67%.
For the molecule `COc1ccc(Cn2c(=O)c3oc4ccccc4c3n(Cc3cccc(C)c3)c2=O)cc1`, the survival was inactive: 81%.
Turning to `CCOc1ccccc1NC(=O)Cn1cc(C(=O)c2ccc(Cl)cc2)c(=O)c2ccc(C)nc21`, the survival was inactive: 85%.
Take `Cc1cc2nn(-c3ccc(F)cc3)nc2cc1NC(=O)c1cccc2ccccc12`: the survival was inactive: 76%.
Consider `O=C(Nc1nnc(S(=O)(=O)N2CCOCC2)s1)c1ccccc1Cl`, for which the survival was inactive: 74%.
Then `CC(C)CCNC(=O)c1ccc2c(c1)N(Cc1cccc(Cl)c1)C(=O)c1ccccc1S2`, with inactive: 70%.
On to `CCCC(=O)n1nc(-c2ccco2)nc1NCc1ccccc1Cl`, for which the survival was inactive: 89%.
The result for `Cc1cc(C)n2ncc(C(=O)Nc3ccc(C)c(C)c3)c2n1` reads inactive: 117%; that for `CC(=O)Nc1ccc(NC(=O)C2CCCN2S(=O)(=O)c2ccc3c(c2)CCCC(=O)N3)cc1` (stereo unspecified), inactive: 65%.
Then `COc1ccc(OC)c(CCNC(=O)c2cc3c(=O)oc4ccc(C)cc4c3s2)c1`, with inactive: 84%; and `Cc1ccc(OCC(=O)Nc2ccc3c(c2)nc(CCNC(=O)c2ccco2)n3C)cc1`, with inactive: 137%; and `COc1ccc(N2CCN(C(=O)CN3C(=O)CSc4c3c(C)nn4-c3ccccc3)CC2)cc1`, with inactive: 85%.
On to `O=C(Nc1ccc2oc(-c3cccnc3)nc2c1)c1ccc(-c2ccc(OC(F)(F)F)cc2)o1`, for which the survival is inactive: 112%.
Turning to `CN(C)N=Nc1ccc(S(N)(=O)=O)cc1`, the survival is inactive: 92%.
Consider `O=C(Nc1ccc2nc(SCc3ccccc3)sc2c1)c1ccccc1F`, for which the survival is inactive: 88%.
As for `CC1(C)CC(NC(=O)CCCC(=O)O)CC(C)(C)N1`, the survival was inactive: 107%.
The result for `O=C(Nc1ccc(F)c(Cl)c1)c1cc(S(=O)(=O)N2CCc3ccccc3C2)ccc1F` reads inactive: 80%.
In the case of `COCCCNc1nc2cc(OC)c(OC)cc2c2nc(-c3ccccc3)nn12`, the survival is inactive: 65%.
The result for `Cc1ccccc1N1CC(C(=O)Nc2ccc(Br)cc2)CC1=O` (stereo unspecified) reads inactive: 134%.
As to `COc1ccc(CNC(=O)CN2N=C(c3ccccc3)CCC2=O)c(OC)c1`, the survival was inactive: 78%.
As for `CCn1c(=O)c(=O)n(CC)c2cc(N3CCCCC3)c(NC(=O)c3ccc(Cl)cc3)cc21`, the survival was inactive: 127%.
In the case of `COc1ccc(-c2nnn(CC(=O)N(CC(=O)NCc3ccccc3)c3ccc4c(c3)OCCO4)n2)cc1OC`, the survival was inactive: 102%.
The result for `Cc1nnc(N2CCCC(C(=O)NCc3ccccc3F)C2)c2nn(-c3ccc(Cl)cc3)c(C)c12` (stereo unspecified) reads inactive: 68%; that for `COc1cc(Cl)c(C)cc1NC(=O)c1ccc2c(SCC(=O)O)c3c(nc2c1)CCCC3`, inactive: 52%.
The result for `O=C(CSc1n[nH]c(-c2ccccc2)n1)NCCCc1ccccc1` reads inactive: 69%.
The result for `Cc1ccc(-n2nnc(-c3nsc(NC(=O)c4cccc(Cl)c4)n3)c2C)cc1C` reads inactive: 67%.
Turning to `COc1ccc(C(=O)NCc2nnc(SCC(=O)Nc3ccccc3)n2-c2ccccc2)cc1`, the survival was inactive: 77%.
The result for `O=C(Cn1c(=O)c2ccccc2n(CC(=O)Nc2ccc(F)cc2F)c1=O)NCCc1ccccc1` reads inactive: 81%; that for `CCN(CC)CCNC(=O)c1ccc2c(c1)NC(=O)C(CS(=O)(=O)Cc1cccc(Br)c1)N2` (stereo unspecified), inactive: 134%.
`COc1ccc(-c2nc3cc(C(C)C)ccc3o2)cc1NC(=O)COc1ccc(C)cc1C`: the survival was inactive: 59%.
